Drawing on a collection of fitness landscapes (doi:10.1126/science.1257360), this text covers enrichment ratio for 153 variants.

B1: PhoQ; a variant is named by its letters at X, in order, P23837 (parent)
chain: MKKLLRLFFPLSLRVRFLLATAAVVLVLSLAYGMVALIGYSVSFDKTTFRLLRGESNLFYTLAKWENNKLHVELPENIDKQSPTMTLIYDENGQLLWAQRDVPWLMKMIQPDWLKSNGFHEIEADVNDTSLLLSGDHSIQQQLQEVREDDDDAEMTHSVAVNVYPATSRMPKLTIVVVDTIPVELKSSYMVWSWFIYVLSANLLLVIPLLWVAAWWSLRPIEALAKEVRELEEHNRELLNPATTRELTSLVRNLNRLLKSERERYDKYRTTLTDLTHSLKTPLXXLQXXLRSLRSEKMSVSDAEPVMLEQISRISQQIGYYLHRASMRGGTLLSRELHPVAPLLDNLTSALNKVYQRKGVNISLDISPEISFVGEQNDFVEVMGNVLDNACKYCLEFVEISARQTDEHLYIVVEDDGPGIPLSKREVIFDRGQRVDTLRPGQGVGLAVAREITEQYEGKIVAGESMLGGARMEVIFGRQHSAPKDE

Some of the results follow. Bounds are passed on as bounds.

Variants of B1 are the subject of this experiment. As to the kind of experiment: enrichment ratio after two sorts for PhoP signalling (ratio (wild type AVST 3.29)); higher = more functional. The note with it: with PhoP (E. coli).
For the variant QHWA, the enrichment ratio was at most 0.25.

Turning to RVYC, the enrichment ratio was at most 0.25.

As for HHSA, the enrichment ratio is at most 0.25.

Turning to TKVM, the enrichment ratio turned out to be 36.7.

As to YSST, the enrichment ratio was at most 0.25.

As to KAKI, the enrichment ratio was at most 0.25.

For the variant GHPT, the enrichment ratio was at most 0.25.

On to TKHG, for which the enrichment ratio was at most 0.25.

On to HNSM, for which the enrichment ratio was found to be 0.923.

On to QTFY, for which the enrichment ratio is at most 0.25.

As to EQFI, the enrichment ratio is at most 0.25.

Turning to WGSN, the enrichment ratio is at most 0.25.

As for VWLN, the enrichment ratio was at most 0.25.

In the case of HNEF, the enrichment ratio is at most 0.25.

In the case of EGYR, the enrichment ratio was at most 0.25.

Turning to VWHK, the enrichment ratio is at most 0.25.

Regarding FAPY, the enrichment ratio was at most 0.25.

With DNMD, the enrichment ratio is at most 0.25.

On to LNCC, for which the enrichment ratio is at most 0.25.

In the case of IFRD, the enrichment ratio is at most 0.25.

For EIVN, the enrichment ratio was at most 0.25.

Consider NWYA, for which the enrichment ratio is at most 0.25.

Regarding FKQL, the enrichment ratio was at most 0.25.

For LRQN, the enrichment ratio is at most 0.25.

As to ACQY, the enrichment ratio is 0.317.

For the variant SGHA, the enrichment ratio was at most 0.25.

Regarding VRRA, the enrichment ratio was at most 0.25.

Consider HGHY, for which the enrichment ratio is at most 0.25.

As to SFKK, the enrichment ratio is at most 0.25.

Regarding GMGT, the enrichment ratio was at most 0.25.

Turning to WSYY, the enrichment ratio was at most 0.25.

As for NCVY, the enrichment ratio was at most 0.25.

In the case of NTKG, the enrichment ratio was at most 0.25.

Take MVHM: the enrichment ratio is at most 0.25.

Turning to DIDM, the enrichment ratio is at most 0.25.

Regarding TQPC, the enrichment ratio is at most 0.25.

In the case of TYTK, the enrichment ratio is at most 0.25.

Take HETL: the enrichment ratio was at most 0.25.

Regarding GALC, the enrichment ratio was determined as 9.42.

Regarding WRNC, the enrichment ratio is at most 0.25.

As to AYAG, the enrichment ratio was at most 0.25.

With IDCP, the enrichment ratio is at most 0.25.

Regarding QRCP, the enrichment ratio was at most 0.25.

As to FIIG, the enrichment ratio was at most 0.25.

As for IYDF, the enrichment ratio is at most 0.25.

As to PHGY, the enrichment ratio is at most 0.25.

Regarding TYNN, the enrichment ratio turned out to be 0.28.

Take QVNN: the enrichment ratio is at most 0.25.

As to LCYL, the enrichment ratio came out at 0.949.

Regarding VMHS, the enrichment ratio is at most 0.25.

Take VQDW: the enrichment ratio was at most 0.25.

For EVLT, the enrichment ratio was at most 0.25.

In the case of AYCC, the enrichment ratio was 0.342.

As to SAFH, the enrichment ratio was at most 0.25.

For PTVW, the enrichment ratio is at most 0.25.

Consider FCCG, for which the enrichment ratio was at most 0.25.

Take DLET: the enrichment ratio was at most 0.25.

Regarding LRKW, the enrichment ratio was at most 0.25.

On to FFLH, for which the enrichment ratio was at most 0.25.

Take YLHP: the enrichment ratio was at most 0.25.

QITL: the enrichment ratio is at most 0.25.

As to FTQG, the enrichment ratio is at most 0.25.

As to LGMA, the enrichment ratio was at most 0.25.

On to RVRG, for which the enrichment ratio is at most 0.25.

On to RAMC, for which the enrichment ratio was at most 0.25.

VNAH: the enrichment ratio is at most 0.25.

With AKIN, the enrichment ratio is at most 0.25.

With KGQV, the enrichment ratio is at most 0.25.

As for GWCR, the enrichment ratio was at most 0.25.

Consider NRFH, for which the enrichment ratio is at most 0.25.

VYAV: the enrichment ratio was at most 0.25.

As for QFIF, the enrichment ratio was at most 0.25.

For the variant GASF, the enrichment ratio was at most 0.25.

Take FHMK: the enrichment ratio was at most 0.25.

For RPHY, the enrichment ratio is at most 0.25.

Take TNGK: the enrichment ratio was at most 0.25.

As to HWVH, the enrichment ratio is at most 0.25.

Consider APTF, for which the enrichment ratio is at most 0.25.

Turning to YDWL, the enrichment ratio was at most 0.25.

Turning to GIYV, the enrichment ratio is at most 0.25.

Regarding MHCK, the enrichment ratio is at most 0.25.

For GSFR, the enrichment ratio was at most 0.25.

For MKGQ, the enrichment ratio was at most 0.25.

Turning to GMDD, the enrichment ratio was at most 0.25.

With YLLR, the enrichment ratio is at most 0.25.

Turning to VERI, the enrichment ratio was at most 0.25.

In the case of TDQS, the enrichment ratio turned out to be 0.714.

With VEFE, the enrichment ratio was at most 0.25.

On to HEYN, for which the enrichment ratio is at most 0.25.

For FYSS, the enrichment ratio is at most 0.25.

Take MPKC: the enrichment ratio was at most 0.25.

As for EPQG, the enrichment ratio was at most 0.25.

On to DPGH, for which the enrichment ratio is at most 0.25.

For QMWF, the enrichment ratio amounted to 1.36.

As to KDVA, the enrichment ratio was at most 0.25.

On to YNAH, for which the enrichment ratio is at most 0.25.

As to LHSF, the enrichment ratio was at most 0.25.

For the variant STCH, the enrichment ratio was 12.6.

LTNE: the enrichment ratio was at most 0.25.

As to QLCE, the enrichment ratio was at most 0.25.

For ADWH, the enrichment ratio is at most 0.25.

Turning to GSEH, the enrichment ratio was at most 0.25.

Take SKSI: the enrichment ratio was 5.03.

For the variant INPD, the enrichment ratio is at most 0.25.

GLFF: the enrichment ratio was at most 0.25.

Consider REDG, for which the enrichment ratio is at most 0.25.

MTHC: the enrichment ratio was at most 0.25.

Turning to NNAG, the enrichment ratio is at most 0.25.

In the case of NAFK, the enrichment ratio is at most 0.25.

For PINM, the enrichment ratio is at most 0.25.

For the variant NDWS, the enrichment ratio was at most 0.25.

In the case of GYWE, the enrichment ratio was at most 0.25.

As for HYKL, the enrichment ratio is at most 0.25.

As to PARH, the enrichment ratio was at most 0.25.

As for WSDF, the enrichment ratio is at most 0.25.

As for NIVM, the enrichment ratio was at most 0.25.

QSKP: the enrichment ratio is at most 0.25.

For the variant REAA, the enrichment ratio was at most 0.25.

For PTLR, the enrichment ratio was at most 0.25.

Regarding VSPE, the enrichment ratio was at most 0.25.

Take FDGT: the enrichment ratio is at most 0.25.

In the case of ENEC, the enrichment ratio was at most 0.25.

Take EGAI: the enrichment ratio is at most 0.25.

On to NNRN, for which the enrichment ratio was at most 0.25.

For RCSW, the enrichment ratio was at most 0.25.

As to IEDI, the enrichment ratio was at most 0.25.

With FHVV, the enrichment ratio was at most 0.25.

As for KNSK, the enrichment ratio is at most 0.25.

ILIM: the enrichment ratio was at most 0.25.

For YQHE, the enrichment ratio is at most 0.25.

With CSYL, the enrichment ratio is at most 0.25.

For the variant MQRG, the enrichment ratio is at most 0.25.

Take LAYG: the enrichment ratio is at most 0.25.

As for WIWR, the enrichment ratio is at most 0.25.

As to HSDH, the enrichment ratio is at most 0.25.

As for TCAC, the enrichment ratio worked out at 10.4.

For the variant DVCK, the enrichment ratio was at most 0.25.

For the variant YERE, the enrichment ratio was at most 0.25.

In the case of WQFG, the enrichment ratio was at most 0.25.

Turning to EQHQ, the enrichment ratio is at most 0.25.

On to RTLA, for which the enrichment ratio is at most 0.25.

Turning to MSNQ, the enrichment ratio is at most 0.25.

As to PGHN, the enrichment ratio was at most 0.25.

On to MDVT, for which the enrichment ratio is at most 0.25.

For NYVS, the enrichment ratio is at most 0.25.

As for IENC, the enrichment ratio was at most 0.25.

KYMY: the enrichment ratio is at most 0.25.

With GWMS, the enrichment ratio was at most 0.25.

In the case of YPCP, the enrichment ratio was at most 0.25.

For MYPA, the enrichment ratio was at most 0.25.

In the case of MGQM, the enrichment ratio is at most 0.25.

Take QQKC: the enrichment ratio was at most 0.25.

YVSR: the enrichment ratio was at most 0.25.
